# Measured values from PMC6919601, “Identification of Plasmodium dipeptidyl aminopeptidase allosteric inhibitors by high throughput screening” (PLoS ONE, 2019).
# Hit rate of the full screen: of about 110,000 compounds, about 230 (0.21%) showed an effect of 50% or more. The list shows a part of the results.
# Target: DPAP1 (Plasmodium falciparum, UniProt Q8IIJ9)
# Assay: primary screen, percent inhibition; read by cleavage of a fluorogenic dipeptide substrate; higher = more effect of the substance
# Design: species or system P. falciparum D10 trophozoite lysates; single well
# 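Also: 30 min substrate incubation versus DMSO and 10 µM JCP410 controls.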
# DPAP1, sequence (Q8IIJ9 whole entry, looked up): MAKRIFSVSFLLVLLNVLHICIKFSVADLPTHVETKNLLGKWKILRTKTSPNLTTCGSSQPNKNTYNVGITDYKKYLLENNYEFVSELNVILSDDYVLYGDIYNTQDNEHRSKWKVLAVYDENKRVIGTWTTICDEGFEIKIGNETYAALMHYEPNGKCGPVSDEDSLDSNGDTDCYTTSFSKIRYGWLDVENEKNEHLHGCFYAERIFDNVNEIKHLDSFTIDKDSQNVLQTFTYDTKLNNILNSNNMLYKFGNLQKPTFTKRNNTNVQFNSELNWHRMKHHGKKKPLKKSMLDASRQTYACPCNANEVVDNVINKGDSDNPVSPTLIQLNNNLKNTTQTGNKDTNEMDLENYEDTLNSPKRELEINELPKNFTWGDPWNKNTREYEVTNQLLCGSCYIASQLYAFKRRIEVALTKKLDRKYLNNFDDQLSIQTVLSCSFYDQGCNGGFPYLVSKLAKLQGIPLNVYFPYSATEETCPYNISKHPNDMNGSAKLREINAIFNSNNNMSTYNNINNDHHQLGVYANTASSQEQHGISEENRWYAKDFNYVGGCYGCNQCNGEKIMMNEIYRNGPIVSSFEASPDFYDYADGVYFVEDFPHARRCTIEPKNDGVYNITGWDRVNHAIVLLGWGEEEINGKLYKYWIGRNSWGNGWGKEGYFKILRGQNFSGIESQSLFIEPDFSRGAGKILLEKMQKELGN
row,Compound,% Inhibition @ 10 uM [%]
1,Cc1nn(-c2ccccc2)c(C)c1CC(=O)O,-6.99
2,O=C(CN(c1ccc(F)cc1)S(=O)(=O)c1ccccc1)NCc1ccco1,5.5
3,O=C(CC1(O)C(=O)Nc2ccc(Br)cc21)c1ccc(Cl)cc1 (stereo not drawn),4.74
4,Cc1nn(C(C)C(=O)NC2CCCCCC2)c(=O)c2c1sc1ccccc12 (stereo not drawn),-0.229
5,Cc1oc2ncnc(N3CCOCC3)c2c1C(=O)N(CCN(C)C)Cc1ccco1,2.09
6,Cc1cc(C(=O)NCc2ccccn2)c2c(C)nn(-c3ccccc3)c2n1,-6.03
7,CCCCN(C1CCN(C)CC1)S(=O)(=O)c1csc(C(N)=O)c1,-3.05
8,CCCN(CCC)S(=O)(=O)c1ccc(C(=O)NCc2nnc(S)n2-c2ccccc2)cc1,4.95
9,CCc1ccc(-c2ncccc2O)cc1N,-0.999
10,CC(=O)Nc1ccc(-c2cc(-c3ccc(NC(C)=O)cc3)nc(-c3ccc([N+](=O)[O-])cc3)n2)cc1,-4.49
11,Cn1c(=O)n(C)c2cc(C=C3C(=O)NC(=S)NC3=O)ccc21,4.68
12,Cc1ccccc1C(=O)NC1CCSC1=O (stereo not drawn),3.85
13,Cc1c2cnn(CC(=O)NCc3cccnc3)c(=O)c2c(C)n1Cc1ccccc1F,-2.17
14,Cc1c(C(=O)NC2CCN(Cc3ccccc3)CC2)sc2nc3n(c(=O)c12)CCCC3,-6.34
15,CC1(C)Cc2ccccc2C(C(Cc2ccccc2)C(N)=O)=N1 (stereo not drawn),-2.39
16,CN1C/C(=C/c2ccc(Br)o2)C(=O)/C(=C/c2ccc(Br)o2)C1,-4.65
17,O=C(c1cc2c(s1)-c1ccccc1OC2)N1CCN(Cc2ccccc2)CC1,-1.37
18,CC1(C)OC(C)(C)/C(=C\c2ccccc2)C1=O,-6.28
19,Cn1c(=O)c2c(nc(CN3CCc4ccccc4C3)n2CCCc2ccccc2)n(C)c1=O,59.1
20,COc1ccc(CN(C)S(=O)(=O)c2nnc(NC(=O)/C=C/c3ccccc3)s2)cc1OC,0.361
21,Cc1cccc(CSCCNC(=O)c2ccc(Cl)cc2)c1,2.01
22,COc1ccc(C2CC3=Nc4ccccc4NC(c4ccco4)C3=C(O)C2)cc1 (stereo not drawn),8.85
23,CC(C)NCC(O)C1COc2ccccc2O1 (stereo not drawn),-2.63
24,CCOc1ccc(CN2CCC(N3CCOCC3)CC2)cc1,-3.56
25,CCSc1nnc(NC(=O)c2ccc3c(c2)CC(c2ccccc2)OC3=O)s1 (stereo not drawn),41.3
26,CC(C)(C)c1ccc(OCc2nn3c(-c4ccncc4)nnc3s2)cc1,21.2

row,Compound,% Inhibition @ 10 uM [%]
1,CC(C)(C)CC(C)(C)c1ccc(OCC(=O)Nc2nccs2)cc1,8.74
2,CC(=O)C1=C(C)NC(=O)C(C#N)C1c1ccncc1 (stereo not drawn),0.746
3,CSc1ncc(C(=O)Nc2cccnc2)c(C)n1,-0.742
4,COc1ccc2c(CNCc3ccc(C)cc3)c(C(=O)O)n(Cc3cccc(F)c3)c2c1,1.94
5,FC(F)(F)c1ccc(CN2CCN(Cc3ccccc3)CC2)cc1,-5.57
6,CCN(CC)CCn1c(NC(=O)COc2c(F)c(F)cc(F)c2F)nc2ccccc21,11.5
7,CCOC(=O)N1CCC(NS(=O)(=O)c2ccc3nc(O)ccc3c2)CC1,-1.48
8,CCOC(=O)C1CCN(S(=O)(=O)c2ccccc2)CC1,1.48
9,O=C(CN1C(=O)S/C(=C\c2cccn2-c2cccc(C(=O)O)c2)C1=O)Nc1ccc(F)cc1,9.94
10,CN1CCN(C/C=C/c2ccccc2)CC1,2.7
11,CCCCN(C)C(=O)c1nc(-c2ccc(Cl)cc2)n2c1CCCCC2,-0.48
12,CNC(=S)NC12CC3CC(CC(C3)C1)C2,-4.01
13,CNS(=O)(=O)c1cn(CC(=O)NCc2ccc(OC)cc2)cc1S(=O)(=O)NC,2.08
14,CCCCCCNC(=O)CCCN1C(=O)c2ccccc2C1=O,0.484
15,O=c1cc(CSc2nncn3c2cc2sccc23)nc2ccccn12,-0.517
16,CC(C)(C)S(=O)(=O)c1cc(S(C)(=O)=O)sc1S(C)(=O)=O,7.96
17,Cc1ccc(S(=O)(=O)NCc2ccc(C(=O)NC(C)c3ccccc3)cc2)cc1 (stereo not drawn),4.81
18,Cc1cc(NC(=O)c2cc(-c3ccc(F)cc3)no2)nn1CC(=O)N1CCC(C)CC1,-4.49
19,Cc1ccc(OCC(=O)Nc2ccccc2Cl)cc1,3.35
20,Cc1cc(/C=C2\NC(=O)NC2=O)c(C)n1-c1ccc(OCc2ccc(F)cc2)cc1,3.81
21,CCCC[S+](O)CC(O)COc1ccccc1 (stereo not drawn),-4.3
22,O=C1C(Cl)=C(Nc2ccc(Cl)cc2)C(=O)N1c1ccccc1,-2.83
23,CCCCNC(=O)CCSc1ccc(Cl)cc1,1.19
24,Clc1cccc(OCCCCN2CCOCC2)c1,0.0792
25,COc1ccc(C(=O)Nc2cccc(C)c2C)cc1OC,0.247
26,CC1=NN(C(=O)NS(=O)(=O)c2ccccc2Cl)C(C)(C)C1,0.968

row,Compound,% Inhibition @ 10 uM [%]
1,Cc1ccccc1OCC(=O)Nc1nnc(S(=O)(=O)N(C)Cc2ccccc2)s1,2.53
2,COc1ccc(N(C(C)C(=O)Nc2ccc(OC)cc2OC)S(C)(=O)=O)cc1 (stereo not drawn),-0.185
3,CC(NS(=O)(=O)c1ccc(CCC(=O)Nc2ccc3c(c2)OCCO3)cc1)c1ccccc1 (stereo not drawn),-5.81
4,CC(C)n1c(=O)c2oc3ccccc3c2n(Cc2cccc(Cl)c2)c1=O,0.0244
5,Cc1ccc(Cn2c(C)c3cnn(CC(=O)NC4CCCCCC4)c(=O)c3c2C)cc1,-0.447
6,O=C(O)CC(C(=O)O)c1c[nH]c2ccccc12 (stereo not drawn),3.47
7,O=C(NCC12C=CC(O1)C1C(=O)N(Cc3ccccc3)C(=O)C12)c1cccs1 (stereo not drawn),-5.36
8,Cc1ccc(OCC(=O)Nc2nonc2NC(=O)COc2ccc(C)cc2)cc1,1.57
9,O=C1CCCN1c1ccc(S(=O)(=O)N2CCCCC2)cc1,-5.35
10,CN(C)CCN(C)C/C=C/c1ccc(N(C)C)cc1,-0.603
11,CSc1nsc(SCC(=O)NC2=NC(=O)C(C)S2)n1 (stereo not drawn),1.91
12,COC(C)(C)C#C/C=C/S(=O)(=O)c1ccc(C)cc1,-2.6
13,Cc1cc(NS(=O)(=O)NC(C)(C)C)no1,-7.35
14,Cc1ccc(C)c(OCC(=O)Nc2cccc3cccnc23)c1,0.189
15,c1ccc(CNc2nc(-c3cccs3)cs2)cc1,3.15
16,CC1(C)CC(=O)C2=C(C1)N(Cc1ccccc1)C(N)=C(C#N)C2c1ccccc1 (stereo not drawn),-3.9
17,C#CCOc1ccc(/C=C2/NC(=O)N(Cc3ccccc3F)C2=O)cc1,-15.3
18,COc1cccc(CSc2nc3c(cc2C#N)CCC3)c1,10.2
19,CC1=C(C#N)C(c2ccc(Cl)cc2Cl)C2=C(O)CCCC2=N1 (stereo not drawn),2.67
20,Cc1ccc2c(c1Br)C1(C(=O)N2)C(C#N)=C(N)Oc2cc(N)ccc21 (stereo not drawn),5.35
21,CC(=O)NS(=O)(=O)c1ccc(NC(=O)c2ccc(Br)o2)cc1,19.7
22,N#CC1=C(SCc2ccccc2Cl)NC(=O)CC1c1cccs1 (stereo not drawn),-4.93
23,OCCN(CCO)Cc1ccc(Cl)c(Cl)c1,-2.34
24,O=C(Nc1noc2ccccc12)c1cc2c(s1)CCCC2,3.77
25,N#Cc1cc2c(ccc3ccccc32)oc1=N,4.41
26,O=C(Nc1nccs1)c1cccc(NC(=O)C(c2ccccc2)c2ccccc2)c1,0.189

row,Compound,% Inhibition @ 10 uM [%]
1,COc1ccccc1CNc1nc2ccc(C(=O)c3ccccc3)cc2n2c(C)nnc12,-8.28
2,CCOC(=O)C1CCN(CC2=CC[C@H]3C[C@@H]2C3(C)C)CC1,1.74
3,COc1ccccc1C(=O)Nc1ccncc1,5.49
4,COc1cc(C2CC(c3c(O)cc(C)oc3=O)=NCCS2)cc(OC)c1O (stereo not drawn),-5.5
5,CCOc1cc(C2C3=C(CCCC3=O)N(C)C3=C2C(=O)CCC3)ccc1OCC(=O)O,4.76
6,O=C(O)CCCC(=O)NCCc1cccc(Cl)c1,-6.58
7,Cc1cc(-c2ccc(S(=O)(=O)N3CCC(C)CC3)cc2)on1,-4.4
8,O=C(O)CCC(=O)N1CCN(c2nc(-c3ccccc3)c3ccccc3n2)CC1,0.685
9,O=C(CCN1C(=O)c2ccccc2Sc2ncccc21)N1CCOCC1,-0.959
10,COc1cccc(NC(=O)c2sc(Cl)nc2-c2ccccc2)c1,-0.545
11,CC(c1ccccc1)N1C(=O)c2ccccc2C1=O (stereo not drawn),-4.74
12,O=C(NCc1nnc(SCC(=O)N2CCCCC2)o1)c1c(F)cccc1Cl,-7.21
13,Cc1n[nH]c(C)c1CCCOc1ccc(F)cc1,1.35
14,CCCN1CCC(Nc2ccc3c(c2)CCC3)CC1,-2.18
15,N#Cc1ccc(OCC(=O)NCc2ccc(-n3cccc3)cc2)cc1,1.32
16,CCC(Sc1nc2ccccc2c2nc3ccccc3n12)C(=O)NCc1cccnc1 (stereo not drawn),-2.03
17,COc1ccc(CC(=O)Nc2cccc(Cl)c2)cc1,-1.93
18,COc1ccc(CNC(=O)c2cnn3c(C(F)F)cc(-c4ccc(C)cc4)nc23)cc1OC,5.94
19,COc1ccc(C2NN=C(c3ccc(C)cc3)S2)cc1OC (stereo not drawn),-1.33
20,O=C1CC(c2ccccc2Br)C2=C(CCCC2=O)N1 (stereo not drawn),-4.53
21,CCc1nc2ccc(C(=O)NCc3c[nH]nc3C)cc2nc1CC,1.63
22,O=C(NCCc1ccc(Cl)cc1)C1CCCN(c2ncnc3c2nc2n3CCCCC2)C1 (stereo not drawn),5.05
23,CC(C)C(NC(=O)/C(=C\c1ccco1)NC(=O)c1ccccc1Br)C(=O)O (stereo not drawn),-1.93
24,CCOC(=O)C1=CN(C)C=C(C(=O)OCC)C1c1cc(OC)c(O)c(OC)c1,-5.05
